# Measured values as given in the supplement of paper PMC8728848.
# Some of the results follow.
# Molecular target: Neu5Gc(b2-6)Gal(b1-4)GlcNAc
# Experiment: glycan array binding signal (z-score within array); higher = stronger binding
# Conditions: glycan notation: IUPAC condensed, linker removed
# Summary of the method: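 Negative Z-scores can be read as non-binding. The Z-score is calculated within each array and then averaged across arrays of one protein sequence at different concentrations or buffers and across linkers. Arrays, 3228 in all, were curated from the Consortium for Functional Glycomics database and kept only where the protein sequence was available.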
binder,measurement,value
"FliC (Pseudomonas aeruginosa), P72151 (protein) MALTVNTNIASLNTQRNLNASSNDLNTSLQRLTTGYRINSAKDDAAGLQISNRLSNQISGLNVATRNANDGISLAQTAEGALQQSTNILQRIRDLALQSANGSNSDADRAALQKEVAAQQAELTRISDTTTFGGRKLLDGSFGTTSFQVGSNAYETIDISLQNASASAIGSYQVGSNGAGTVASVAGTATASGIASGTVNLVGGGQVKNIAIAAGDSAKAIAEKMDGAIPNLSARARTVFTADVSGVTGGSLNFDVTVGSNTVSLAGVTSTQDLADQLNSNSSKLGITASINDKGVLTITSATGENVKFGAQTGTATAGQVAVKVQGSDGKFEAAAKNVVAAGTAATTTIVTGYVQLNSPTAYSVSGTGTQASQVFGNASAAQKSSVASVDISTADGAQNAIAVVDNALAAIDAQRADLGAVQNRFKNTIDNLTNISENATNARSRIKDTDFAAETAALSKNQVLQQAGTAILAQANQLPQAVLSLLR",glycan array binding signal (z-score),-0.163
